Here are results for 5 molecules from patent publication US20240301085A1 (SIMCERE ZAIMING PHARMACEUTICAL, published 2024).

T1: Polypeptide GC3pep of human GPC3 (Ala524-Lys563) (human)
T1 construct: Membrane proximal end of human GPC3, coated on the ELISA plate; also called polypeptide GC3pep protein; GC3pep polypeptide protein
T1 peptide: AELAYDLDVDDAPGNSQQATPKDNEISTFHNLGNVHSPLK

B1: Y035 scFv-hFc (Fc fusion)
scFv: DIVMTQTPLSLPVITGEPASISCRSSQSLVHSNGNTYLQWYLQKPGQSPQLLIYKVSNRFSGVPDRFSGSGSGTDFTLKISRVEAEDVGVYYCSQSIYVPYTFGQGTKLEIKRGGGGSGGGGSGGGGSEVQLVQSGAEVKKPGASVKVSCKASGYTFSDYEMHWVRQAPGQGLEWMGAIHPGSGDTAYNQRFKGRVTITADKSTSTAYMELSSLRSEDTAVYYCARFYSYAYWGQGTLVTVSA[here human IgG1 Fc with changes without letters]
notes: Control antibody in the form scFv-human IgG1 Fc; also called antibody Y035
B2: S001-SIM4 (Fc fusion)
scFv: DVVMTQTPLSLPVTPGEPASISCRSSQSLVHSNANTYLHWYLQKPGQSPQLLIYKVSNRFSGVPDRFSGSGSGTDFTLKISRVEAEDVGVYYCSQNTHVPPTFGQGTKLEIKGGGGSGGGGSGGGGSEVQLVQSGAEVKKPGASVKVSCKASGYTFTDYEMHWVRQAPGQRLEWMGALDPKTGDTAYSQKFKGRVTLTADTSASTAYMELSSLRSEDTAVYYCTRFYSYTYWGQGTLVTVSS[here human IgG1 Fc with changes without letters]
notes: also called anti-GPC3 humanized antibody
B3: S001-SIM3 (Fc fusion)
scFv: DVVMTQTPLSLPVTPGEPASISCRSSQSLVHSNANTYLHWYLQKPGQSPQLLIYKVSNRFSGVPDRFSGSGSGTDFTLKISRVEAEDVGVYYCSQNTHVPPTFGQGTKLEIKGGGGSGGGGSGGGGSEVQLVQSGAEVKKPGASVKVSCKASGYTFTDYEMHWVRQAPGQRLEWMGALDPKTGDTAYSQKFKGRVTITADTSASTAYMELSSLRSEDTAVYYCTRFYSYTYWGQGTLVTVSS[here human IgG1 Fc with changes without letters]
notes: as for B2
B4: S001-SIM2 (Fc fusion)
scFv: DIVMTQTPLSLPVTPGEPASISCRSSQSLVHSNGNTYLHWYLQKPGQSPQLLIYKVSNRFSGVPDRFSGSGSGTDFTLKISRVEAEDVGVYYCSQNTHVPPTFGQGTKLEIKGGGGSGGGGSGGGGSEVQLVQSGAEVKKPGASVKVSCKASGYTFTDYEMHWVRQAPGQRLEWMGALDPKTGDTAYSQKFKGRVTLTADTSASTAYMELSSLRSEDTAVYYCTRFYSYTYWGQGTLVTVSS[here human IgG1 Fc with changes without letters]
notes: as for B2
B5: S001-SIM5 (Fc fusion)
scFv: DVVMTQTPLSLPVTPGEPASISCRSSQSLVHSNANTYLHWYLQKPGQSPQLLIYKVSNRFSGVPDRFSGSGSGTDFTLKISRVEAEDVGVYYCSQNTHVPPTFGQGTKLEIKGGGGSGGGGSGGGGSEVQLVQSGAEVKKPGASVKVSCKASGYTFTDYEMHWVRQAPGQGLEWMGALDPKTGDTAYSQKFKGRVTLTADKSASTAYMELSSLRSEDTAVYYCTRFYSYTYWGQGTLVTVSS[here human IgG1 Fc with changes without letters]
notes: as for B2

The first test addresses T2, monkey GPC3-His protein (monkey, UniProt A0A2K5VK50 24-553, Natural GPC3 can be cut by furin into alpha (24-357) and beta (358-553) subunits joined by disulfide bonds. It is given here as one polypeptide. The heparan sulfate chains and the His tag are not …).
T2 construct: Bought protein; also called monkey GPC3 protein
Put plainly: SPR, antibody captured on Protein A chip, monkey GPC3-His as analyte, 1:1 model. On the procedure: (§1) The sample and running buffer was HBS-EP+ (10 mM HEPES, 150 mM NaCl, 3 mM EDTA, 0.05% surfactant P20) (GE Healthcare; BR-1006-69). The flow cell was set at 25° C. The sample block was set at 16° C. Both were pretreated with the running buffer. […] The association and dissociation processes of the antibody with the antigen protein were recorded, and finally, the chip was regenerated using Glycine pH 1.5 (GE Healthcare; BR-1003-54). […] The dissociation phase was monitored for up to 600 s and triggered by switching from the sample solution to the running buffer. The surface was regenerated by washing with 10 mM glycine solution (pH 1.5) at a flow rate of 30 μL/min for 30 s. The difference in bulk refractive index was corrected by subtracting the responses obtained from the goat anti-human Fc surface. […] To calculate the apparent KD and other kinetic parameters, the Langmuir 1:1 model was used.
On the technique in general: SPR reads the build-up and loss of mass on a sensor chip optically.
As a reminder, the Kd is the equilibrium constant for the complex coming apart. Broadly, the koff is the rate constant with which the complex falls apart. A word on the kon: it is a measure of how fast the partners come together. Molecule B1 registered a Kd of 1.27 nM, a koff of 0.000313 s⁻¹ and a kon of 247000 M⁻¹ s⁻¹.
Regarding B2, the Kd is 1.19 nM, the koff was determined as 0.000366 s⁻¹ and the kon amounted to 308000 M⁻¹ s⁻¹.
For B3, in that order: 1.13 nM, 0.000383 s⁻¹ and 338000 M⁻¹ s⁻¹.
For B4, in that order: 1.47 nM, 0.000407 s⁻¹ and 276000 M⁻¹ s⁻¹.
For B5, in that order: 0.541 nM, 0.000203 s⁻¹ and 375000 M⁻¹ s⁻¹.

In the next test the target is T3, human GPC3-His protein (human, UniProt P51654 25-559).
T3 construct: Bought protein; also called human GPC3 protein; not shown: His tag
Nature of the test: SPR, antibody captured on Protein A chip, human GPC3-His as analyte, 1:1 model. How it is done:
as §1
Molecule B1 came in with a Kd of 1.76 nM, a koff of 0.000273 s⁻¹ and a kon of 155000 M⁻¹ s⁻¹.
For B2, in that order: 1.96 nM, 0.000367 s⁻¹ and 187000 M⁻¹ s⁻¹.
In the case of B3, binding was put at a Kd of 2.12 nM, the koff turned out to be 0.000411 s⁻¹ and the kon turned out to be 194000 M⁻¹ s⁻¹.
In the same order, the values of B4 are 2.04 nM, 0.000391 s⁻¹ and 192000 M⁻¹ s⁻¹.
B5 yielded a Kd of 1.07 nM, an off-rate constant (koff) of 0.000225 s⁻¹ and an on-rate (kon) of 211000 M⁻¹ s⁻¹.

The target of a further test is T3, human GPC3-His protein. Nature of the test: ELISA, coated human GPC3-His, antibody 1 nM. On the procedure: (§2) After incubation at 37° C. for 2 h, the plate was washed 3 times with PBS.
T3 sequence (P51654 25-559 limits assumed): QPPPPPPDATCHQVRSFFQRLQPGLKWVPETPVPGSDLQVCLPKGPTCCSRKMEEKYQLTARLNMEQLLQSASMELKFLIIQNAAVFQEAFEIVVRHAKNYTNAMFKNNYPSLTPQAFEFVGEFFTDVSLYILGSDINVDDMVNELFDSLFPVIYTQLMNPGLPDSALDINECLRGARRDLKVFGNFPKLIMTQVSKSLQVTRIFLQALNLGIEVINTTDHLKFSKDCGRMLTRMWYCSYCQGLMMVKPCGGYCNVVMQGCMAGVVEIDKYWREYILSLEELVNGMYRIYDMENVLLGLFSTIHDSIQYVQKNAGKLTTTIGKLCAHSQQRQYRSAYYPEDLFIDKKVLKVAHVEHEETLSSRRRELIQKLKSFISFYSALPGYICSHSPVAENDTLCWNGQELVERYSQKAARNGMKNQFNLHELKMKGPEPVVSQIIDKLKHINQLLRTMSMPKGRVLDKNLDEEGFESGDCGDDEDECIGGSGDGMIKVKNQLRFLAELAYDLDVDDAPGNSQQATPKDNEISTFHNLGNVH
A general note: An ELISA detects its analyte on a solid surface through an enzyme-linked reagent.
The molecule B1 displayed an OD450 of 2.15.
Still for that read-out and setting: the same measure for B2: 2.12.
Same read-out and setting: the same measure for B3: 1.95; for B4: 1.95; for B5: 2.04.

Another test addresses T4, monkey GPC3, full length, on HEK293T cells (monkey).
T4 construct: whole, on cells; also called HEK293T-monkey GPC3 cells; HEK293T-cynoGPC3
Put plainly: FACS on HEK293T-monkey GPC3 cells. On the procedure:
(§3) Data analysis was performed by software (FlowJo) to obtain the mean fluorescence intensity (MFI) of the cells. Then, analysis was performed by software (GraphPad Prism8), data were fitted, and EC₅₀ values were calculated.
Broadly, the EC50 is the concentration at which the effect is half-maximal. In the case of B1, the EC50 stood at 5.24 nM and the “Max MFI” value came to 52700.
In the same order, the values of B2 are 1.35 nM and 89200.
B3: it took 1.42 nM to reach a half-maximal effect (EC50) and the “Max MFI” value was 98100.
For B4, in that order: 1.43 nM and 97100.
For B5, in that order: 1.3 nM and 93200.

Another test has as its target T1, Polypeptide GC3pep of human GPC3 …. Nature of the test: ELISA, coated GC3pep, antibody 100 nM. On the procedure: as §2
For the molecule B1, the OD450 is 2.22.
On to B2, for which the OD450 turned out to be 2.39.
On the same count and under the same terms, the value for B3 was 2.21; that for B4 was 2.22; that for B5 was 2.4.

For another test, the target named is T5, murine GPC3-His protein (murine, UniProt Q8CFZ4 25-558, limits assumed).
T5 construct: Bought protein; also called murine GPC3 protein; not shown: His tag
Put plainly: ELISA, coated murine GPC3-His, antibody 100 nM. On the procedure:
as §2
In turn, B1 displayed an OD450 of 0.38.
On to B2, for which the OD450 amounted to 0.11.
Same read-out and setting: the same measure for B3: 0.2; for B4: 0.11.
As for B5, the OD450 was 0.1.

In another test the target is T1, Polypeptide GC3pep of human GPC3 …. Put plainly: ELISA, coated GC3pep, antibody 0.1 nM. On the procedure:
as §2
In turn, B1 had an OD450 of 0.57.
The same measure, in the same setting: the same measure for B2: 0.94.
With B3, the OD450 was 0.93.
Still for that read-out and setting: the value for B4 was 1.03; that for B5 was 0.85.

The target in another test is T5, murine GPC3-His protein. Put plainly: ELISA, coated murine GPC3-His.
T5 sequence (Q8CFZ4 25-558 limits assumed): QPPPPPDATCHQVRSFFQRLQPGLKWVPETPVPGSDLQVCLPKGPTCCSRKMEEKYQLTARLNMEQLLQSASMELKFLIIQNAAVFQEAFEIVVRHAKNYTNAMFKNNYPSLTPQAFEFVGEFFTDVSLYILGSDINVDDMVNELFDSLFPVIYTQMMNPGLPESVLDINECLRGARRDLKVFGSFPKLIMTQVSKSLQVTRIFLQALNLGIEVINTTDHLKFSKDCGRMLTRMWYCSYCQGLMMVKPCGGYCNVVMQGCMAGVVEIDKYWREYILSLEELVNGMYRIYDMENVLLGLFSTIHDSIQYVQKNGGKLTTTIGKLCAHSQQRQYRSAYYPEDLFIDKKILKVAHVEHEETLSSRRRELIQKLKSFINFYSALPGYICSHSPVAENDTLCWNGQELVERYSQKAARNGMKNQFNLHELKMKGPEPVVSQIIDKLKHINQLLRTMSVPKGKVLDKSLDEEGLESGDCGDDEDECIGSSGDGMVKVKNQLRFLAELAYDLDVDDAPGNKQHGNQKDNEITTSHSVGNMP
For the molecule B1, the binding result is listed as “no binding (tested: 100 nM)”.
On the same count and under the same terms, the same measure for B2: “no binding (tested: 100 nM)”.
As for B3, the binding result is “no binding (tested: 100 nM)”.
Same read-out and setting: the value for B4 was “no binding (tested: 100 nM)”; that for B5 was “no binding (tested: 100 nM)”.

A further test concerns the target T5, murine GPC3-His protein. Nature of the test: ELISA, coated murine GPC3-His, antibody 10 nM. On the procedure:
as §2
B1 registered an OD450 of 0.05.
B2 gave an OD450 of 0.05.
The molecule B3 registered an OD450 of 0.05.
On the same count and under the same terms, the same measure for B4: 0.07.
Still for that read-out and setting: the value for B5 was 0.1.

The next test deals with T5, murine GPC3-His protein. Nature of the test: ELISA, coated murine GPC3-His, antibody 1 nM. How it is done: as §2
B1 had an OD450 of 0.05.
Still for that read-out and setting: the same measure for B2: 0.05; for B3: 0.06; for B4: 0.06.
The molecule B5 displayed an OD450 of 0.05.

The target in the next test is T1, Polypeptide GC3pep of human GPC3 …. Put plainly: ELISA, coated GC3pep, antibody 0.01 nM. On the procedure: as §2
Consider B1, for which the OD450 was 0.12.
As to B2, the OD450 came out at 0.17.
Same read-out and setting: the same measure for B3: 0.16.
On the same count and under the same terms, the same measure for B4: 0.17; for B5: 0.18.

Another test has the same target. Put plainly: ELISA, coated GC3pep, antibody 10 nM. On the procedure: as §2
On to B1, for which the OD450 was 2.27.
The same measure, in the same setting: the same measure for B2: 2.41; for B3: 2.38; for B4: 2.45.
Still for that read-out and setting: the value for B5 was 2.43.

The next test addresses T5, murine GPC3-His protein. Put plainly: ELISA, coated murine GPC3-His, antibody 0.1 nM. How it is done: as §2
As to B1, the OD450 amounted to 0.04.
Molecule B2 had an OD450 of 0.05.
Still for that read-out and setting: the same measure for B3: 0.07.
Still for that read-out and setting: the value for B4 was 0.05.

A further test concerns the target T3, human GPC3-His protein. Put plainly: ELISA, coated human GPC3-His, antibody 100 nM. On the procedure: as §2
In turn, B1 came in with an OD450 of 2.36.
B2 displayed an OD450 of 2.51.
On the same count and under the same terms, the same measure for B3: 2.2; for B4: 2.25; for B5: 2.26.

In a further test the target is T2, monkey GPC3-His protein. Nature of the test: ELISA, coated monkey GPC3-His, antibody 0.1 nM. How it is done: as §2
B1 displayed an OD450 of 1.31.
Regarding B2, the OD450 came to 1.77.
Same read-out and setting: the value for B3 was 1.7.
B4 came in with an OD450 of 1.66.
Still for that read-out and setting: the value for B5 was 1.71.

The target in another test is T2, monkey GPC3-His protein. Nature of the test: ELISA, coated monkey GPC3-His, antibody 0.01 nM. On the procedure: as §2
B1 came in with an OD450 of 0.36.
Still for that read-out and setting: the value for B2 was 0.44; that for B3 was 0.44.
On the same count and under the same terms, the same measure for B4: 0.44; for B5: 0.47.

In a further test the target is T3, human GPC3-His protein. Put plainly: ELISA, coated human GPC3-His, antibody 10 nM. On the procedure:
as §2
In the case of B1, the OD450 stood at 2.44.
The same measure, in the same setting: the same measure for B2: 2.31; for B3: 2.25.
On the same count and under the same terms, the same measure for B4: 2.17; for B5: 2.27.

For the next test, the target named is T6, human GPC3, full length, on cells (human, UniProt P51654 25-554).
T6 construct: whole, on cells; also called CHO-K1-human GPC3 cells; CHOK1-hGPC3
Put plainly: FACS on CHO-K1-human GPC3 cells. How it is done:
as §3
As to B1, the EC50 is 3.51 nM and the “Max MFI” value was found to be 8550.
For B2, in that order: 0.99 nM and 14900.
In the same order, the values of B3 are 0.91 nM and 14900.
For B4, in that order: 1 nM and 14300.
As to B5, a half-maximal response (EC50) required 0.72 nM and the “Max MFI” value was determined as 14800.
